In PMC4336329 (PLoS ONE, 2015):
Out of some 310,000 compounds screened, about 14,000 (4.5%) showed an effect of 50% or more. Effects have a minus sign here. The list shows a part of the results.

These molecules were tested against human ether-à-go-go-related gene (hERG) potassium channel (human, UniProt Q12809) (assay: primary screen, population patch clamp on CHO cells stably expressing hERG).
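Note: peak tail current of the secondary pulse compared with the same well before compound.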

Sequence of human ether-à-go-go-related gene (hERG) potassium channel (Q12809 whole entry, looked up): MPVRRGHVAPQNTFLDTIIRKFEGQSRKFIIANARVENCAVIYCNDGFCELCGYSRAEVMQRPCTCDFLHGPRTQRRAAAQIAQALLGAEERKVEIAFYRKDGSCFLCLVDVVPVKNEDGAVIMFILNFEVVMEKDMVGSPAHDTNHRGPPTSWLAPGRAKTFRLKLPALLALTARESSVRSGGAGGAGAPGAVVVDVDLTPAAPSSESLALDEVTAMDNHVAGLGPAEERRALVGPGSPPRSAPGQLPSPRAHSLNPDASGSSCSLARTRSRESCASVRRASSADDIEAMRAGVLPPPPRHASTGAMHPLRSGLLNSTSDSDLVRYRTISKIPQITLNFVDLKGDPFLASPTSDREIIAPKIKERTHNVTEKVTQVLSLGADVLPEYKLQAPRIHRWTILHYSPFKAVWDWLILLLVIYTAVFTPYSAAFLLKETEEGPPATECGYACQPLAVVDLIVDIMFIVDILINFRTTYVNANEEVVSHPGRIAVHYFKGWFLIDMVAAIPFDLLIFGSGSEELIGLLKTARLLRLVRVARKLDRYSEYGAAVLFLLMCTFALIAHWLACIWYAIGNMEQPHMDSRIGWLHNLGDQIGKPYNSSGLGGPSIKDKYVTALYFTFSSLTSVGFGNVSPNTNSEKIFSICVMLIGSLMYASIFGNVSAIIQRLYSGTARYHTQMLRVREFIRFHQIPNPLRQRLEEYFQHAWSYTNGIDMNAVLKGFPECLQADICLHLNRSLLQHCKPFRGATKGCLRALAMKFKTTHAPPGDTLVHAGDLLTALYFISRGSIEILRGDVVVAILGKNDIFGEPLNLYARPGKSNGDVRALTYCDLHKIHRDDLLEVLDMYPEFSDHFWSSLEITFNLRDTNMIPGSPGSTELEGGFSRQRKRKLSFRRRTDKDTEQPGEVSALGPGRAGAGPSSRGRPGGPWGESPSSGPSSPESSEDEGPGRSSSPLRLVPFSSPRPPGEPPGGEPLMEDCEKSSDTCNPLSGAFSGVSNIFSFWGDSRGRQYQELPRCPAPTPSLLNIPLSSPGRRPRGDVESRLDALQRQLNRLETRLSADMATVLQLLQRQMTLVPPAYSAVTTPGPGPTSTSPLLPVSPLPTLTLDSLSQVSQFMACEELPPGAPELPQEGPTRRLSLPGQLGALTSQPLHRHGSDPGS

Row | SMILES | hERG current change (%, negative = inhibition) at 10uM
1 | CCc1cc2c(=O)nc3n(c2s1)Cc1ccccc1/C3=C(/O)c1ccc(F)cc1 | -3.7%
2 | CSc1ccc(/C=C(\NC(=O)c2ccc(C)cc2)C(=O)Nc2cccc(C)c2)cc1 | 15.6%
3 | Cc1ccccc1S(=O)(=O)Cc1ccc(C(=O)NCCCN(C)Cc2ccccc2)o1 | -56.2%
4 | COc1c(F)c(F)c(C(=O)Nc2ccc(-c3nc4ccccc4[nH]3)cc2)c(F)c1F | 0.561%
5 | CCN(CC)c1ccc(NC(=O)OC)cc1 | 6.05%
6 | O=C(CSc1nncs1)NCCCc1ccccc1 | 34.2%
7 | Cc1cnc(C(=O)OCc2ccc(Br)cc2)cn1 | 0.431%
8 | O=C(NC(=S)NCCc1ccccc1)c1ccco1 | 10.2%
9 | Cc1csc2c(N3CCN(C(=O)NC(C)(C)C)CC3)ncnc12 | 2.16%
10 | CC(C)n1cc(/C=C2/NC(=O)N(c3cccc(Cl)c3)C2=O)c2ccccc21 | 5.27%
11 | CCOc1ccc(C2=Nn3c(nnc3-c3ccccn3)SC2)cc1 | -10.9%
12 | CCN=C(Nc1ccc2c(c1)OCO2)SC1CC(=O)N(c2ccc(OC)cc2)C1=O (centres unmarked) | 16.4%
13 | O=C(c1ccccc1Cc1ccccc1)N1CCN(S(=O)(=O)c2ccc(F)cc2)CC1 | 19.5%
14 | CC(C)NC(=O)C(=O)Nc1ccc2c(c1)N(S(=O)(=O)c1cccs1)CCC2 | -9.42%
15 | O=C(Nc1cccc(F)c1)c1ccc(S(=O)(=O)NCC2CCCO2)cc1 (centres unmarked) | -12.2%
16 | N#CCCN(C(=S)NC(=O)c1ccco1)c1ccccc1F | 25.5%
17 | CCOc1ncccc1C(=O)NCCN1C(=O)S/C(=C/c2cccs2)C1=O | 2.67%
18 | CC(C)(C)c1ccc(C(=O)NC(=S)Nn2cnnc2)cc1 | 17%
19 | Cc1ccc(-c2c(NC(=O)c3ccco3)oc3ccccc3c2=O)cc1 | 10.1%

Row | SMILES | hERG current change (%, negative = inhibition) at 10uM
20 | CCOC(=O)C(C)Oc1ccc(NC(=O)C(Cl)Cl)cc1 (centres unmarked) | 5.62%
21 | CC(C)(C)c1ccc(C2=CC(c3ccccc3F)n3ncnc3N2)cc1 (centres unmarked) | 5.95%
22 | CSS(=O)(=O)c1cccc2cccnc12 | 12.7%
23 | COc1cc(C(=O)NCC(=O)N/N=C(/C)c2cccs2)cc(OC)c1OC | -0.388%
24 | Cc1cc2nc3c(nc2cc1C)CCCC3 | 15.9%
25 | Cc1cc([N+](=O)[O-])cc(/C=N\NC(=O)C2COc3ccccc3O2)c1O (centres unmarked) | -1.78%
26 | CN(C(=O)c1ccc(Br)o1)C1CCCCC1 | 6.77%
27 | O=C(CN1CCN(S(=O)(=O)c2ccccc2)CC1)NC(=O)NC1CCCCC1 | -10.9%
28 | CCc1cccc(N(C(=O)c2csnn2)C(C(=O)NC2CCCCC2)c2cccnc2)c1 (centres unmarked) | 4.65%
29 | CCCCN(C)CCNC(=O)C1CCCN(S(=O)(=O)c2cccc3nsnc23)C1 (centres unmarked) | -26.3%
30 | Cc1ccccc1CCN1CCCC(CN(C)CC(C)(C)C)C1 (centres unmarked) | 8.88%
31 | CC(C)CC(=O)NCc1ccc(F)cc1 | 12.9%
32 | N#CC(C(=O)OC1CCCCC1)c1nc2ccccc2nc1N1CCOCC1 (centres unmarked) | -36.8%
33 | CC(C)COc1ccc(CNC(=S)N/N=C/c2ccc([N+](=O)[O-])cc2)cc1 | -0.529%
34 | CCOC(=O)c1ccc(NC(=O)c2cccc(S(=O)(=O)N3CCOCC3)c2)cc1 | -24.5%
35 | O=C(CN(C(=O)c1ccc(Cl)cc1)N1C(=O)C2CCCCC2C1=O)c1ccc(Cl)cc1 (centres unmarked) | 15.1%
36 | COCCNc1nc(N)c([N+](=O)[O-])c(NC2CCCCC2)n1 | 4.56%
37 | CCCCCOC(=O)Nc1ccc(S(=O)(=O)Nn2cnnc2)cc1 | 6.12%
38 | Cc1nc2ccccc2c(N)c1C(=O)/C=C/c1ccccc1 | -79.7%

Row | SMILES | hERG current change (%, negative = inhibition) at 10uM
39 | Cc1ccc(S(=O)(=O)N2CCOCC2)cc1NC(=O)COC(=O)CCn1c(C)csc1=O | 2.85%
40 | COc1ccccc1-c1sc2cc3c(cc2c1-c1ccc2c(c1)OCO2)OCO3 | 5.16%
41 | Cc1ccc(S(=O)(=O)N2CCCCC2)cc1NC(=O)COC(=O)CNC(=O)c1cc(Cl)cc([N+](=O)[O-])c1 | -51.4%
42 | CCc1cccc(C)c1NC(=O)CCOc1ccccc1 | 3.79%
43 | Cc1ccc(NS(=O)(=O)c2cccs2)cc1S(=O)(=O)N1CCCCCC1 | -0.255%
44 | CC(NC(=O)c1cc(S(=O)(=O)N2CCCC2)ccc1Cl)c1ccccn1 (centres unmarked) | 18.1%
45 | O.OC[C@H]1O[C@@H](n2cnc3c(NC4CCCC4)nc(Cl)nc32)[C@H](O)[C@@H]1O | 6.9%
46 | CCOc1nc(-c2ccccc2)c2cc(C)ccc2n1 | -37.6%
47 | CC(=O)Nc1ccc2nc(-c3ccccn3)[nH]c2c1 | 0.751%
48 | CCCCCCCCCC(=O)OCC(O)CO (centres unmarked) | 3.18%
49 | O=C(OCC(=O)N1CCc2ccccc2C1)c1cc(=O)[nH]c2ccccc12 | 7.67%
50 | CCc1nn2cc(C(=O)c3cc(C)ccc3O)cnc2c1-c1ccc(F)cc1 | 1.69%
51 | CCCNC(=S)N1CCN(CC)CC1.O=C(O)C(=O)O | 5.56%
52 | O=C1/C(=C/c2ccc(O)cc2)COc2ccccc21 | 23.1%
53 | Cc1ccnc(OC(C(=O)O)C(OCc2ccccc2)(c2ccc(F)cc2)c2ccc(F)cc2)n1 (centres unmarked) | 19.4%
54 | Cc1cc(C)n(-c2cc(O)c(-n3nc(C)cc3C)cc2O)n1 | 23.8%
55 | CC(=O)O[C@H]1CC[C@@]2(C)C(=CC[C@H]3[C@@H]4CC[C@H](C(C)=O)[C@@]4(C)CC[C@@H]32)C1 | 10.9%
56 | CCCCn1c(N)c(N(CC(C)C)C(=O)c2cc(S(=O)(=O)N3CCCCC3)ccc2C)c(=O)[nH]c1=O | 13.3%
